Laboratory results taken from the RNAGym collection of RNA variant scans (doi:10.1073/pnas.2313332121).
Variants at the background level are over-represented here.

B1: TPR 5TU (parent)
chain: GGAUCUUCUCGAUCUAACAAAAAAGACAAAUCUGCCACAAAGCUUGAGAGCAUCUUCGGAUGCAGAGGCGGCAGCCUUCGGUGGCGCGAUAGCGCCAACGUUCUCAACUAUGACACGCAAAACGCGUGCUCCGUUGAAUGGAGUUUAUCAUG

Variants of: B1
Test: polymerase ribozyme fitness, log enrichment relative to wild type (log ratio); higher = more active; in vitro selection for triplet polymerase activity
Procedure, shortened: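 Each subunit of a heterodimeric triplet polymerase ribozyme was mutagenized into a library by PCR, transcribed, and subjected to one round of in vitro selection, run in triplicate. Libraries were annealed with a biotinylated primer, the partner subunit and triplets, incubated frozen at −7 °C, and extended constructs were gel-excised, captured on streptavidin beads and recovered by RT-PCR. Input and output libraries were sequenced on Illumina, keeping genotypes with ≥10 input reads and ≥1 read per output. Fitness is log base 2 of genotype enrichment divided by wild-type enrichment, from inverse-variance-weighted replicate averages.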

A3U G42C C43G G88U C123A and A3U G42C C57U G84U cannot be ordered by “polymerase ribozyme fitness (log ratio)” value: ≤ -4.2 for the first, ≤ -4.2 for the second.

First: A3U G42C U44A G86A C103G C132U
Second: A3U G46C U77C G86U A98U A121U U127A
The “polymerase ribozyme fitness (log ratio)” value of the first is lower: ≤ -4.2 for the first, -4.08 for the second.

A3U G48A A49C U111C G136C and A3U G48U A91C U135G cannot be ordered by “polymerase ribozyme fitness (log ratio)” value: ≤ -4.2 for the first, ≤ -4.2 for the second.

First: A3U G58C G59C C96U C131A
Second: A3U G59A G74U A113U A121U
The “polymerase ribozyme fitness (log ratio)” value of the first is higher: -3.63 for the first, ≤ -4.2 for the second.

A3U G59A U61A C79U G83A A121C and A3U G67U A107U cannot be ordered by “polymerase ribozyme fitness (log ratio)” value: ≤ -4.2 for the first, ≤ -4.2 for the second.

A3U G68C C72U U109G A120G and A3U G92A A113G G133U A142U U146G cannot be ordered by “polymerase ribozyme fitness (log ratio)” value: ≤ -4.2 for the first, ≤ -4.2 for the second.

Going from A3U G143U to A3U U4A A19G G42A A47G C57A G84A, the “polymerase ribozyme fitness (log ratio)” value falls from -2.76 to ≤ -4.2.

A3U U4A C14A A22U A49U A52G U61A A113C and A3U U4G U6A A29U G50A U104G cannot be ordered by “polymerase ribozyme fitness (log ratio)” value: ≤ -4.2 for the first, ≤ -4.2 for the second.

A3U U6A A29G G48A A122C C132U and A3U U6C A23C G68C C76A C85A G117U cannot be ordered by “polymerase ribozyme fitness (log ratio)” value: ≤ -4.2 for the first, ≤ -4.2 for the second.

A3U U6G A22U G25A C38U C76A C85U C116A and A3U U6G A30C U53A G92A C125A C132G cannot be ordered by “polymerase ribozyme fitness (log ratio)” value: ≤ -4.2 for the first, ≤ -4.2 for the second.

A3U U6G C36U C75U C93U and A3U U7A C14A A41C U45G C69A C87A G94A A121C cannot be ordered by “polymerase ribozyme fitness (log ratio)” value: ≤ -4.2 for the first, ≤ -4.2 for the second.

A3U U7C A52C C95U C99U and A3U U7G A28U U31G A37U G81A A89G A122G cannot be ordered by “polymerase ribozyme fitness (log ratio)” value: ≤ -4.2 for the first, ≤ -4.2 for the second.

A3U U7G A66C G68A A97U A107C and A3U U9C G42A G86A C105G A138U cannot be ordered by “polymerase ribozyme fitness (log ratio)” value: ≤ -4.2 for the first, ≤ -4.2 for the second.

A3U U13G U56A U82A C87A and A3U U15C A17C A26C G74C A106G cannot be ordered by “polymerase ribozyme fitness (log ratio)” value: ≤ -4.2 for the first, ≤ -4.2 for the second.

Compared with A3U U15C G81U A97U G128U, A3U U15G U31C U33C G50U C57A G84U C99G C103A A147C U148C is lower in “polymerase ribozyme fitness (log ratio)” value: -3.58 for the first, ≤ -4.2 for the second.

A3U U31A C36G G58U A73G C95U and A3U U44A G133C cannot be ordered by “polymerase ribozyme fitness (log ratio)” value: ≤ -4.2 for the first, ≤ -4.2 for the second.

A3U U55A C87U A91C and A3U U55A G80C C87A U134G cannot be ordered by “polymerase ribozyme fitness (log ratio)” value: ≤ -4.2 for the first, ≤ -4.2 for the second.

First: A3U U55A G84A
Second: A3U U56A A73U C99U A107G A113G G117A C131U G133A U135G
The “polymerase ribozyme fitness (log ratio)” value of the first is higher: -0.911 for the first, ≤ -4.2 for the second.

A3U U77C U82G A91G A98G U148C and A3U U78G G94A A122G cannot be ordered by “polymerase ribozyme fitness (log ratio)” value: ≤ -4.2 for the first, ≤ -4.2 for the second.

First: U4A A12U A24G G25A C54A G58A C87A C114U A115U A119G C125U U148C
Second: U4A A19C
The “polymerase ribozyme fitness (log ratio)” value of the first is lower: ≤ -4.2 for the first, 0.332 for the second.

Going from U4A A19C A89U C96U A138G U146G to U4A A20C A28C A29G C87A G141U, the “polymerase ribozyme fitness (log ratio)” value rises from ≤ -4.2 to -4.08.

U4A A20C U56G A91U G124A and U4A A21C A37G G59U C93G C96U cannot be ordered by “polymerase ribozyme fitness (log ratio)” value: ≤ -4.2 for the first, ≤ -4.2 for the second.

U4A A21G U55G U101G G152A and U4A A22C G48U C75G G84A cannot be ordered by “polymerase ribozyme fitness (log ratio)” value: ≤ -4.2 for the first, ≤ -4.2 for the second.

Going from U4A A22G G58C A64U G68C A73G C85A C87U G126C to U4A A22U A40G U145A, the “polymerase ribozyme fitness (log ratio)” value rises from ≤ -4.2 to -3.05.

U4A A22U C93A U102A A137C and U4A A23G A30G C93A U145G U146C cannot be ordered by “polymerase ribozyme fitness (log ratio)” value: ≤ -4.2 for the first, ≤ -4.2 for the second.

U4A A23U A24U G50A C96U U104G U145C and U4A A23U A29U U53A G59A A60G C87U G126U U134C U148G cannot be ordered by “polymerase ribozyme fitness (log ratio)” value: ≤ -4.2 for the first, ≤ -4.2 for the second.

U4A A23U C27G G58C C63U G68C C87U and U4A A24G C87U A89G G141U U145G cannot be ordered by “polymerase ribozyme fitness (log ratio)” value: ≤ -4.2 for the first, ≤ -4.2 for the second.

U4A A26U A39U C54G G81C G84U A97U C118U U148G and U4A A30C U53A U56A C95U G100U C125A cannot be ordered by “polymerase ribozyme fitness (log ratio)” value: ≤ -4.2 for the first, ≤ -4.2 for the second.

U4A A39C A41U G94A U102A C125G A137C and U4A A47C G84U C95G C149A cannot be ordered by “polymerase ribozyme fitness (log ratio)” value: ≤ -4.2 for the first, ≤ -4.2 for the second.

U4A A52C U53A C85U A107U A119C C125U and U4A A60G C87G U102G A150C cannot be ordered by “polymerase ribozyme fitness (log ratio)” value: ≤ -4.2 for the first, ≤ -4.2 for the second.

U4A A91U A115G and U4A C8A A17G C35U A49U C69U C75A G94A cannot be ordered by “polymerase ribozyme fitness (log ratio)” value: ≤ -4.2 for the first, ≤ -4.2 for the second.

U4A C8G U13G A24C C96U and U4A C8U A16U A40C U53A C57U C87A A97U U145G cannot be ordered by “polymerase ribozyme fitness (log ratio)” value: ≤ -4.2 for the first, ≤ -4.2 for the second.

U4A C8U A28U U55A U56A C95A C116G A147U and U4A C10U A26U U31G A39G C57A C85A U90G A113C cannot be ordered by “polymerase ribozyme fitness (log ratio)” value: ≤ -4.2 for the first, ≤ -4.2 for the second.

First: U4A C27U G83C G117A A122G U146A
Second: U4A C35U C79A G81U C93A U102A U127A
The “polymerase ribozyme fitness (log ratio)” value of the first is higher: -3.14 for the first, ≤ -4.2 for the second.

U4A C36U C75A U82C C95U U135C and U4A C43U C54A U78C U109C cannot be ordered by “polymerase ribozyme fitness (log ratio)” value: ≤ -4.2 for the first, ≤ -4.2 for the second.

U4A C54A C95A A138C and U4A C54G U55A C96A C123U U144C U148G cannot be ordered by “polymerase ribozyme fitness (log ratio)” value: ≤ -4.2 for the first, ≤ -4.2 for the second.

U4A C76G A91U A115U and U4A C79A C123U U148C cannot be ordered by “polymerase ribozyme fitness (log ratio)” value: ≤ -4.2 for the first, ≤ -4.2 for the second.

U4A C79U G83A A107G A110G U144G and U4A C87A cannot be ordered by “polymerase ribozyme fitness (log ratio)” value: ≤ -4.2 for the first, ≤ -4.2 for the second.

First: U4A C93A
Second: U4A G11A C18U A23C A40C U55C G71A U146C
The “polymerase ribozyme fitness (log ratio)” value of the first is higher: -1.38 for the first, ≤ -4.2 for the second.

U4A G11U A16G A29U A39U A49G G94A C116U C125A A150C and U4A G25C C63U A64C U144C C149G cannot be ordered by “polymerase ribozyme fitness (log ratio)” value: ≤ -4.2 for the first, ≤ -4.2 for the second.

U4A G42C U61G C96G and U4A G46U A49C G83C A91U G94U G117U cannot be ordered by “polymerase ribozyme fitness (log ratio)” value: ≤ -4.2 for the first, ≤ -4.2 for the second.

U4A G48C C63U C79G C85U A98U C105U U111G and U4A G58U C87U U90G U127A U148G cannot be ordered by “polymerase ribozyme fitness (log ratio)” value: ≤ -4.2 for the first, ≤ -4.2 for the second.
